In PubChem BioAssay AID488969 (Vanderbilt High Throughput Screening Facility, 2010) one finds z-score data, which are given here for 69 compounds.

The structures appear in SMILES notation. Over roughly 110,000 compounds, “z-score” has its median near -0.1; the highest 2% begin near 2. Some of the results follow. Active and inactive are the calls of the source.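 How the source made its calls: active means z-score in the third read window above 3 or below -3; inactive means the rest.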

This experiment deals with Metabotropic glutamate receptor 8 (Rattus norvegicus) (UniProt P70579). Put plainly: rat mGluR8 modulators via GIRK flux, primary screen, cell-based, thallium flux, HTS (AID 488969). As to conditions: HEK293 rat mGluR8, GIRK (G protein-gated inwardly rectifying potassium channel) thallium flux, FluoZin2; at 10 µM; stronger effect = higher value; submaximal glutamate (EC20) added with thallium.
Sequence of UniProt P70579 (P70579 whole entry, looked up): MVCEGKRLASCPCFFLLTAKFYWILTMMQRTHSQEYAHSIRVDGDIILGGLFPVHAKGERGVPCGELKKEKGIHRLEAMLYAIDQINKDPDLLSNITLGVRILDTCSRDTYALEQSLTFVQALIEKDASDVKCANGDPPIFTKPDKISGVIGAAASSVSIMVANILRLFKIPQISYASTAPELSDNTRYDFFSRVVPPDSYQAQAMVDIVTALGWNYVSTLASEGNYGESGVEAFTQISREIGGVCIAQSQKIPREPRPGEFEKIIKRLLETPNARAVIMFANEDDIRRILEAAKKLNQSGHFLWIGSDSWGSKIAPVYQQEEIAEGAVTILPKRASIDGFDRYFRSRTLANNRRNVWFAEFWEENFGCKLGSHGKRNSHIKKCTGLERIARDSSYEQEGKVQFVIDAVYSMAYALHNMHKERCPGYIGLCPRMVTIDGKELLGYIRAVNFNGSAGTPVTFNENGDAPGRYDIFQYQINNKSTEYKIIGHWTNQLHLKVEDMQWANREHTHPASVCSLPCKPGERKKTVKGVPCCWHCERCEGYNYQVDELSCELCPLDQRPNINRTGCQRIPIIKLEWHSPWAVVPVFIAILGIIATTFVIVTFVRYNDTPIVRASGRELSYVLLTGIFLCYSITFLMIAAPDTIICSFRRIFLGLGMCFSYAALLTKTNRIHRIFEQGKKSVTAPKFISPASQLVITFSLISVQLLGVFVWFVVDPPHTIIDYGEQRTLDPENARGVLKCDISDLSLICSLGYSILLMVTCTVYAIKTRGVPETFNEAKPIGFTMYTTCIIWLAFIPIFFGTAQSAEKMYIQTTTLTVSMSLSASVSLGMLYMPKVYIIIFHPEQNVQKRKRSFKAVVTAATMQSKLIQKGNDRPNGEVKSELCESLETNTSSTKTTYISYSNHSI
As for `O=C(N/N=C/c1ccc(OCc2ccccc2)cc1)c1cccs1`, the z-score is 0.0314.
For the compound `O=C(c1ccco1)N1CCN(CCOCCOc2cccc3ccccc23)CC1`, the z-score is -0.304.
With `COc1cc(NC(=O)Cn2nnc(-c3ccncc3)n2)cc(OC)c1` the figure was 0.284.
`N#CCC(CNc1ncc(C(F)(F)F)cc1Cl)OC(=O)c1ccc(Cl)cc1` (centres undefined) showed a z-score of -0.0887.
Then `CC(=O)/C(N)=N/Nc1cccc(Cl)c1`, with -0.157.
With `CCN(CC)CCCN1C(=O)C(=O)/C(=C(/O)c2ccc(C)cc2)C1c1ccccn1` (centres undefined) the figure was -0.236; with `COc1ccc(S(=O)(=O)NCCSCc2cccs2)cc1`, 1.32.
With `CN1CCN(S(=O)(=O)c2ccc(Br)c3nsnc23)CC1` the figure was 0.0275.
On to `Cc1ccccc1C(NC(N)=O)c1ccccc1` (centres undefined), for which the z-score is 0.158.
Take `CCOC(=O)c1c(NC(=O)CC2Nc3cc(C)c(C)cc3NC2=O)sc(C)c1C` (centres undefined): the z-score was found to be 0.0319.
As for `CCCCSc1nnc2c(n1)[nH]c1ccccc12`, the z-score was found to be 1.14.
With `O=C(CCC1CCCCC1)Nc1cccnc1` the figure was 0.982; with `CCOC(=O)C1CCN(C(=O)Cn2cc(C#N)c3ccccc32)CC1`, 0.0716; with `O=C(CSCc1ccc(Cl)cc1)N1CCN(Cc2ccc3c(c2)OCO3)CC1`, 0.167.
Then `COc1ccc(-c2cc(C3CCN(c4ncccc4[N+](=O)[O-])CC3)[nH]n2)cc1`, with 0.0275.
Consider `O=C(O)c1ccc(NS(=O)(=O)c2ccc(Cl)c(Cl)c2)cc1O`, for which the z-score is -0.145.
With `CC(C)(C)C1CCc2c(sc(NC(=O)CSc3ncn[nH]3)c2C#N)C1` (centres undefined) the figure was -0.123.
For `CCCOc1cccc(C(=O)NC(=S)Nc2ccccc2)c1`, the z-score was found to be 0.0309.
`O=C(Cc1cn2ccsc2n1)OCc1ccccc1` came in with a z-score of -0.286.
On to `Cc1ccc(-c2[nH]nc(N)c2N=Nc2cccc(Cl)c2C)cc1`, for which the z-score came to 0.00456.
With `Cc1nn(Cc2c(F)c(F)c(F)c(F)c2F)c(C)c1NC(=O)c1cccc(COc2ccc(Cl)cc2)c1` the figure was 0.217.
Then `Cc1ccc(S(=O)(=O)c2nnn3c2nc(N2CCCCC2)c2ccccc23)cc1`, with -0.414; and `CC(c1ccco1)N(C(=O)C12CC3(C)CC(C)(CC(C)(C3)C1)C2)c1ccccn1` (centres undefined), with -0.0164.
Compound `O=C(Cn1c(C(F)(F)F)nc2ccccc21)c1ccccc1` registered a z-score of -0.175.
With `C/C(=N\OCC(=O)N/N=C/c1ccccc1)c1cccs1` the figure was 0.716; with `CCCNC(=O)COC(=O)/C=C/c1ccc2c(c1)OCO2`, -0.3; with `O=C(CSc1nnnn1-c1ccccc1)CSc1nnnn1-c1ccccc1`, -0.288.
Compound `O=C(CCCn1c(=O)[nH]c2cc(Cl)ccc2c1=O)NCCN1CCN(c2ccccc2)CC1` gave a z-score of -0.459.
With `CCn1c(COc2ccc(Cl)cc2)nnc1SCc1ccc(C#N)cc1` the figure was -0.00745; with `O=C(NC1CCCCC1)c1cccc(COCC(F)(F)F)c1`, 0.167; with `CN(C)C(=O)CSc1nc(-c2ccccc2)nc2c1CCCC2`, -1.55.
With `O=c1cc(N2CCOCC2)[nH]c(=O)n1-c1ccc(Cl)cc1` the figure was 0.0794; with `CCC(=O)Nc1nc2ccc3nc(C)sc3c2s1`, active: 3.6; with `COC(=O)c1sccc1NC(=O)Cn1cnc2c1c(=O)n(C)c(=O)n2C`, 0.0133.
With `N=c1n(Cc2ccccc2)c2ccccc2n1CC(O)c1ccco1` (centres undefined) the figure was 0.39; with `Cc1ccc(O)c(-c2cc(-c3ccccc3C)[nH]n2)c1`, -0.442; with `CCOc1ccccc1CN1C(=O)c2ccccc2C1C(=O)NC(C)CC` (centres undefined), -0.411.
On to `Nn1c(SCc2ccccc2)nnc1-c1ccccn1`, for which the z-score amounted to 0.00631.
`Cc1cc(C)cc(-n2c(C)cc(/C=C3\C(=N)N4N=C(CC(C)C)SC4=NC3=O)c2C)c1` displayed a z-score of 0.807.
`CCOc1ccc(N=C2NC(=O)S/C2=C\c2ccc(Cl)cc2)cc1` came in with a z-score of -0.125.
Then `CCc1ccc2[nH]c(=O)c(CN(Cc3ccc(F)cc3)C(c3nnnn3CCN3CCOCC3)C(C)C)cc2c1` (centres undefined), with -0.702; and `CC(=O)c1c(C)[nH]c(C(=O)CSc2nnc(-c3cccs3)n2Cc2ccccc2)c1C`, with -0.815.
`Cn1c(=O)c2c(nc(NCCCO)n2C/C=C/c2ccccc2)n(C)c1=O` gave a z-score of -0.152.
Then `O=C(c1ccc(CS(=O)(=O)c2ccc(Br)cc2)o1)N1CCN(c2ncccn2)CC1`, with active: 3.31.
With `COc1ccc(NCc2nnc(SCc3ccccc3)n2-c2ccc(OC)cc2)cc1`, the z-score was -0.342.
In the case of `CCCCSc1nnc2n(CCc3ccccc3)c(=O)c3c4c(sc3n12)COC(C)(C)C4`, the z-score was -0.42.
`CCc1ccc(NC(=O)C2CC(=O)N(C(C)C)C2)cc1` (centres undefined) yielded a z-score of -0.111.
With `COc1ccc(C2C(C#N)=C(N)N(c3sc4c(c3C#N)CCCC4)C3=C2C(=O)CC(C)(C)C3)cc1` (centres undefined) the figure was 0.455; with `CCCCOc1ccc(Cl)cc1CSc1nncn1N`, 0.538.
Compound `Brc1ccc2ncc(Br)cc2c1` gave a z-score of 0.57.
`CCc1nc2oc(C(=O)c3ccccc3)c(N)c2c2c1COC(C)(C)C2` had a z-score of 0.63.
As for `CCC(C)NC(=O)CSc1nc(-c2cccs2)cc(C(F)(F)F)n1` (centres undefined), the z-score was -0.151.
With `CC(=O)N1CCN(c2cc(N3CCc4ccccc4C3)c(F)cc2[N+](=O)[O-])CC1` the figure was -0.214; with `CN1CCN(S(=O)(=O)c2ccc(NC(=O)Nc3cccc(Cl)c3)cc2)CC1`, 1.72.
Take `COc1ccc(NC(=O)NC23CC4CC(CC(C4)C2)C3)cc1OC`: the z-score was -0.136.
In turn, `COc1cccc(C(=O)Nc2ccc3nc(N4CCN(c5ncccn5)CC4)cc(C)c3c2)c1OC` displayed a z-score of 0.275.
Then `O=c1c(Sc2ccccc2)c(C(F)(F)F)[nH]n1-c1ccccc1`, with -0.206; and `CC1NC2(C(=O)N(Cc3ccccc3)c3ccccc32)C2C(=O)N(c3ccccc3)C(=O)C12` (centres undefined), with -0.542.
Then `Cc1nc(N)nc2c1CCCC2`, with 0.62; and `COC(=O)C1C(=O)CC(C)(O)C(C(=O)OC)C1c1ccccc1F` (centres undefined), with -0.0913; and `S=C(Nc1ccccc1)Nc1ccc(Cl)cc1Cl`, with 1.43.
Turning to `Cc1ccc(NC(=O)CSc2nnc(C)n2-c2ccccc2)cc1`, the z-score was -0.164.
The compound `Cc1ccc(C(C2C(=O)CC(C)(C)CC2=O)C2C(=O)CC(C)(C)CC2=O)s1` showed a z-score of -0.289.
Then `O=C(CCS(=O)(=O)c1cccs1)Nc1ccc(C(=O)NCc2ccccc2)cc1`, with -0.131.
With `CN(C)c1ccc(NC(=S)NC(=O)/C=C/c2ccc(Cl)cc2)cc1`, the z-score was -0.112.
`Cc1ccc(SCCCn2cnc3ccccc3c2=O)cc1` came in with a z-score of -0.551.
With `O=C(Nc1ccccc1)c1cccc(S(=O)(=O)N2CCCCC2)c1` the figure was -0.144; with `C(=C\c1cccc2ccccc12)/c1nnc(-c2cccs2)o1`, -0.201.
Then `CC(C)(C)c1ccc(NC(=O)COC(=O)c2ccc(NS(=O)(=O)c3ccc(F)c(F)c3)cc2)cc1`, with -0.477.
